# In PubChem BioAssay AID686979 (National Center for Advancing Translational Sciences (NCATS), 2013):
# In all, about 420,000 compounds went through this assay and about 50,000 (12%) were called active. Inconclusive results, whose numbers are uncertain, are shown with a selection of clear calls. The call rests on the fitted dose curve; in most records, active means well fitted inhibition curve with a large enough effect; inconclusive means small, poorly fitted or top-dose-only effect; inactive means flat fitted curve, though single readings scatter. No potency is given beside an inconclusive call; the fits are too rough.
# Test: qHTS for Inhibitors of human tyrosyl-DNA phosphodiesterase 1 (TDP1): qHTS in cells in presence of CPT; further: nearly all actives have a fitted effect of over 55% in size
# Settings: chicken DT40 Tdp1-/-;hTDP1 cells + 20 nM CPT, ATP luminescence, 48 h; activity change, negative = growth inhibition: at 46.2 µM (top of the series)
# Method in brief: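 Cell growth measured by CellTiter-Glo luminescence after a minimum 48 h, 37 C compound exposure with 20 nM CPT in Tdp1-knockout DT40 cells stably expressing hTDP1, seeded 400/well; qHTS titration format.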
# On the % scale 0 is the no-effect control and ±100 the full control effect; potency means the concentration at half of the fitted maximal effect; tags describe the fitted curve by direction and shape.
SMILES,"activity change, negative = growth inhibition",Potency
O=S(=O)(Nc1nc2ccccc2nc1Cl)c1ccc(Cl)cc1,inactive: -0.437%,
CCOC(=O)CSC(=S)NC(=O)c1ccc(OC)cc1,,"inconclusive [inhibitor, single point]"
CN1CCN(C(=S)c2ccc(-c3cc(Cl)ccc3Cl)o2)CC1,,"inconclusive [inhibitor, single point]"
O=C(CC12CC3CC(C1)CC(CC(=O)N1CCCC1)(C3)C2)N1CCCC1,,"inconclusive [inhibitor, single point]"
NCCOc1ccc(C23CC4CC(CC(C4)C2)C3)cc1,,active: 3.66 µM
CN(Cc1ccccc1)C(=O)c1cccc(NC(=O)Cc2ccc(NC(=O)C3CCCN(C(=O)c4ccccc4)C3)cc2)c1 (centres undefined),,"inconclusive [inhibitor, single point]"
CC1CCC2(CC1)NC(=O)N(CC(=O)NC1CCCCC1C)C2=O (centres undefined),,"inconclusive [inhibitor, single point]"
CCOC(=O)[C@]12CCCC=C1N(Cc1ccc3c(c1)OCO3)C(=O)[C@H](CC(=O)NCC13CC4CC(CC(C4)C1)C3)C2,,"inconclusive [inhibitor, single point]"
COc1ccc(-c2cn3c(n2)sc2cc(C(=O)Nc4cccc(SC)c4)ccc23)cc1,,active: 5.17 µM
C[C@H](NC(=O)c1[nH]cnc1C(=O)Nc1cccc(Cl)c1)c1ccccc1,,"inconclusive [inhibitor, single point]"
CCOc1ccccc1NC(=O)c1nc(S(=O)(=O)Cc2ccccc2F)ncc1Cl,,active: 0.562 µM
O=C(Nc1ccc2nc(SCCOc3ccccc3)sc2c1)c1ccccc1F,inconclusive: -31.9% [inhibitor],
Cc1ccc(N=Nc2ccc(O)c(/C=N\NC(=O)c3ccc(N)cc3)c2)cc1C,,active: 10.3 µM
CCCCNS(=O)(=O)c1ccc(N2CCCCS2(=O)=O)cc1,,"inconclusive [inhibitor, single point]"
CCNC(=S)N(CCc1c(C)[nH]c2ccc(Cl)cc12)Cc1ccco1,,"inconclusive [inhibitor, single point]"
Cc1ccc(CSC2=Nc3ccccc3C3=NC(CC(=O)NCc4cccs4)C(=O)N23)c(C)c1 (centres undefined),,active: 14.6 µM
CC1(C(=O)NS(=O)(=O)c2ccc(F)cc2F)CCN1C(=O)c1cccc(F)c1 (centres undefined),inactive: -10.9%,
Cc1ccc(Cl)cc1N1CCN(C(=O)C2CCN(S(=O)(=O)Cc3ccccc3)CC2)CC1,,active: 4.11 µM
Cc1cc(NC(=O)COC(=O)c2cc(S(=O)(=O)N3CCOCC3)ccc2N2CCCCC2)no1,,"inconclusive [inhibitor, single point]"
